Test results reported in PubChem BioAssay AID757 (NMMLSC, 2007).
The whole screen tested about 190,000 compounds, of which about 520 (0.27%) were called active. The inconclusive results got no clear call from the source; some entries with a clear call stand among them for comparison.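 Rule for the calls: active = GTP binding activity at least 20 points away from the 100% control level, either lower or higher; inconclusive = compound flagged as likely green fluorescent, judged across all proteins; inactive = the rest.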

Molecular target: Ras-related C3 botulinum toxin substrate 1 (Homo sapiens) (UniProt P63000)
Test: wildtype Rac1 GTP binding modulators, primary screen, biochemical, GST-Rac1 beads, flow cytometry, multiplex (AID 757)
Conditions: fluorescent GTP binding, at 10 µM, actives lie on both sides, 0 = cold GTP competed, 100 = untreated

Compound | GTP binding activity (% of control)
O=C(CSc1ccc2c(c1)OCCO2)Nc1cccnc1 | inconclusive: 93%
CCNC(=O)NC(=O)COC(=O)CCc1nc(=O)c2ccccc2n1C | inactive: 100%
Cc1cc(C2(c3cc(C)c(NC(=O)CN4CCOCC4)c(C)c3)CCCCC2)cc(C)c1NC(=O)CN1CCOCC1 | inconclusive: 109%
O=S(=O)(c1ccc2c(c1)oc1ccccc12)N1CCOCC1 | inconclusive: 107%
Cc1n[nH]c(=O)nc1N1CCN(c2ccccc2)CC1 | inconclusive: 87%
O=c1c2ccccc2nc2c3ccccc3c(NCc3ccccn3)nn12 | active: 65%
Cc1cccc(C2(c3cccc(C)c3)CC2C(=O)Nc2ccc([N+](=O)[O-])cc2O)c1 (stereo not drawn) | inactive: 104%
COc1ccc(CNC(C)C(=O)Nc2ccc3ccccc3c2)cc1OC (stereo not drawn) | inactive: 94%
COC(=O)COc1ccc(S(=O)(=O)Nc2ccc3c(c2)OCO3)cc1 | inconclusive: 109%
COc1ccc(C(=O)O/N=C(\N)Cc2ccc(Cl)c(Cl)c2)cc1OC | inconclusive: 98%
COC(=O)c1c(N2C(=O)[C@H]3[C@@H](C2=O)[C@]2(C(=O)Nc4c(C)cc(C)cc42)N2CCC[C@@H]32)sc(C)c1C | inactive: 115%
Cc1onc(C(=O)NN)c1C(=O)N1CCN(C(c2ccccc2)c2ccccc2)CC1 | inconclusive: 91%
CC(=O)Nc1ccc(S(=O)(=O)N2CCN=C2C)cc1 | inconclusive: 105%
COc1ccc(/C=C/C(=O)NC(=S)Nc2cc([N+](=O)[O-])ccc2O)cc1OC | inconclusive: 88%
COc1cccc2cc(C(=O)NNC(=O)c3ccc(Br)cc3)c(=O)oc12 | inactive: 98%
O=C(Cn1cnc2c(nnn2Cc2ccc(F)cc2)c1=O)NCc1ccc2c(c1)OCO2 | inconclusive: 107%
COc1ccc(C2CC(c3ccc4ccccc4c3)=NN2C(=O)CN2C(=O)CCC2=O)cc1 (stereo not drawn) | inactive: 98%
COc1ccc(-n2cccc2/C=C2\C(=N)N3N=C(c4ccco4)SC3=NC2=O)cc1 | inconclusive: 86%
Cc1nnc(SCC(=O)c2ccc(S(=O)(=O)N3CCOCC3)cc2)n1-c1ccccc1 | inconclusive: 105%
COc1ccccc1NC(=O)C1CC(=O)OC1c1ccccc1 (stereo not drawn) | inconclusive: 103%
CCOC(=O)C1CCCN(C(=O)CCCOc2cc(=O)n(C)c3ccccc23)C1 (stereo not drawn) | inconclusive: 96%
CCCC/C(O)=C1\C(=O)CC(C)(C)CC1=Nc1ccccc1OC | inconclusive: 108%
COc1ccc(C2=Nn3c(nnc3-c3ccccc3)SC2)cc1OC | active: 78%
Cn1nnc(NC(=S)NC(=O)c2ccc(-c3ccc(Br)cc3)o2)n1 | active: 76%

Compound | GTP binding activity (% of control)
Nc1[nH]ncc1C(=O)Nc1cccc(C(F)(F)F)c1 | inconclusive: 107%
Cc1nc2ccccc2nc(=O)c1NNc1ccc([N+](=O)[O-])cc1 | inconclusive: 89%
N#Cc1ccc(-c2ccc(F)cc2)nc1Sc1ccccc1 | inconclusive: 106%
Oc1c(CN2CCN(c3ccccn3)CC2)cc(Cl)c2cccnc12 | inconclusive: 99%
COc1ccc(Cl)cc1NC(=O)CN1CCc2ccccc21 | inactive: 96%
Nc1nnc(-c2ccc(Cl)cc2Cl)s1 | inconclusive: 90%
CC1(C)CC2CC(C)(CN2C(=O)c2cccs2)C1 (stereo not drawn) | active: 157% [activator]
COC(=O)c1cc(NC(=O)c2cccc([N+](=O)[O-])c2C)ccc1Cl | inactive: 101%
Nc1ccc(S(=O)(=O)Nc2ccc(S(N)(=O)=O)cc2)cc1 | inconclusive: 95%
CC(=O)c1cccc(NC(=O)Cn2cc3c(n2)CCCC3)c1 | inconclusive: 106%
CCOC(=O)c1cc(NC(=O)Nc2cc(C)ccn2)c(C)nc1C | inconclusive: 91%
Clc1ccc(-c2n[nH]c3c2CCC3)cc1Cl | inconclusive: 103%
CCc1ccccc1NC(=O)N1C2CCCC1CC(NC(C)=O)C2 (stereo not drawn) | active: 139% [activator]
O=C(COc1ccc(C(=S)N2CCOCC2)cc1)N1CCCC1 | inconclusive: 103%
Nc1n[nH]c(-c2ccccc2)n1 | inconclusive: 105%
CCOC(=O)c1c(NC(=O)c2c(-c3ccccc3)noc2C)sc(C)c1-c1ccccc1 | inconclusive: 112%
CCC1SC(CC)C(=O)N(CC(=O)NC2CCCCC2)C1=O (stereo not drawn) | inactive: 99%
Cc1cc(OCCCCn2ccnc2)cc(C)c1Cl | inactive: 101%
COc1ccc(-n2c(SC(CN3CCCCC3)CN3CCCC3=O)nc3ccccc3c2=O)cc1 (stereo not drawn) | inactive: 105%
Cc1ccnc2nc(C(=O)OCCOc3ccc(Cl)cc3)nn12 | inconclusive: 93%
COc1cccc(NC(=O)CSC(N)=O)c1 | inactive: 101%
O=C(/C=C/c1ccco1)Oc1cc(Br)cc(/C=N/NC(=O)c2ccccc2O)c1 | inconclusive: 102%
Cc1ccc2nc(NC(=O)C3CCN(S(=O)(=O)c4cc([N+](=O)[O-])ccc4Cl)CC3)sc2c1 | inconclusive: 104%
CCOc1cc(CNc2ccc3c(c2)OCCO3)cc(Br)c1OC | inconclusive: 105%

Compound | GTP binding activity (% of control)
OC(CNCc1ccccn1)c1ccccc1 (stereo not drawn) | inconclusive: 107%
CC(C)(C)NC(=O)CC(CC(=O)O)c1ccccc1 (stereo not drawn) | inconclusive: 104%
CCN1CCN(CC(=O)N2N=C(c3ccc(OC)cc3)CC2c2ccc(OC)cc2)C(=O)C1=O (stereo not drawn) | inactive: 104%
COc1ccc(-n2nc(C(=O)NCC(=O)Nc3ccccn3)c3ccccc3c2=O)cc1Cl | inconclusive: 111%
CC(=O)Nc1cn(C(C)=O)c(C)n1 | inconclusive: 107%
Cc1nc2c(nnn2Cc2ccccc2)c(=O)[nH]1 | inconclusive: 83%
CCCCn1c(=O)[nH]c(=O)c2c1nc(-c1ccc(C#N)cc1)n2C1CCCC1 | inconclusive: 105%
CCOC(=O)N1CCN(C(=O)C(c2ccccc2)c2ccccc2)CC1 | inconclusive: 105%
O=[N+]([O-])c1ccc(C=Nc2ccc(Cl)cc2Cl)s1 | inconclusive: 114%
COC(=O)c1cccn(CC(=O)c2ccc(Cl)cc2)c1=O | inactive: 100%
COC(=O)CSc1nc(C)cc(N2CCOCC2)n1 | inactive: 100%
Cc1cc(-c2ccccc2)[nH]c(=O)c1S(=O)(=O)c1ccc(Cl)cc1 | inconclusive: 99%
O=C(COC(=O)/C=C/c1ccc([N+](=O)[O-])cc1)NC(c1ccccc1)c1ccccc1 | inactive: 98%
O=C(Cc1ccc(F)cc1)Nc1ccccc1Sc1ccccc1 | inconclusive: 102%
O=C(COc1ccc(Cl)cc1Cl)N1CCCCCC1 | inconclusive: 107%
Cc1ccc(CNC(=S)Nc2cc(C(=O)O)ccc2C)cc1 | inactive: 98%
Cc1cccc(NC2=CC(=O)CC(C)(C)C2)c1C | inactive: 88%
CSc1nc2ccc(NC(=O)c3c(F)cccc3F)cc2s1 | inconclusive: 95%
CSC1=NC2(CCCCC2)CC12C=CC(=O)C=C2 | inactive: 103%
Cc1cc(C(=O)NNC(=S)NC(C)c2ccccc2)c2ccccc2n1 (stereo not drawn) | inconclusive: 126%
N#CCc1nn(-c2ccccc2)c(N)c1C#N | inconclusive: 93%
N#C/C(=C\c1ccc(-c2ccc(C(=O)O)cc2)o1)c1nc2ccccc2[nH]1 | active: 71%
CCOC(=O)N1CCC(Nc2ccc3nnc(-c4ccccc4)n3n2)CC1 | inconclusive: 89%
Cc1ccc2cccc(OCC(=O)N3CC(C)CC(C)C3)c2n1 (stereo not drawn) | inconclusive: 96%

Compound | GTP binding activity (% of control)
O=C(COC(=O)c1cc(Br)c(Br)s1)NCCC1=CCCCC1 | inactive: 93%
Cc1cc(C)n(-c2nc(SCC(=O)Nc3nccs3)c3c4c(sc3n2)COC(C)(C)C4)n1 | inconclusive: 97%
CN1CC(=O)NC1=NC(=O)c1ccc(Cl)c(S(=O)(=O)N2CCCCCC2)c1 | inactive: 91%
CCOc1ccc(C(=O)Nc2ccc(N3CCN(S(C)(=O)=O)CC3)cc2)cc1[N+](=O)[O-] | inconclusive: 98%
COc1ccc(/C=N/NC(=O)c2c([N+](=O)[O-])c(C)nn2C)cc1 | inconclusive: 103%
CC[C@H](C)[C@H](NC(N)=O)C(=O)NCCc1ccc(OC)c(OC)c1 | inactive: 100%
Nc1c(S(=O)(=O)c2cccc(Cl)c2)c2nc3ccccc3nc2n1/N=C/c1ccc(O)c(O)c1 | active: 79%
COCCn1c(SCc2nc3scc(-c4ccc(Cl)cc4)c3c(=O)[nH]2)nnc1-c1cccc(C)c1 | inconclusive: 97%
CC(C)CCN1CN(S(=O)(=O)c2cccs2)c2nc3ccccc3nc21 | inconclusive: 105%
O=C(NCC(c1cccnc1)N1CCOCC1)c1ccco1 (stereo not drawn) | inconclusive: 93%
O=C(O)C(Cc1c[nH]c2ccccc12)NS(=O)(=O)c1ccc2ccccc2c1 (stereo not drawn) | inconclusive: 88%
Clc1nc2sccn2c1/C=N/n1cnc2ccccc21 | inconclusive: 89%
O=C(NC1CCCCC1)c1noc2c1CCCCC2 | active: 120% [activator]
CN(CC(=O)NCCc1ccccc1)S(=O)(=O)c1ccccc1 | inactive: 99%
O=C(CNC(=S)NC(=O)C1CCCCC1)c1ccccc1 | inconclusive: 105%
CCOC(=O)c1c(C)[nH]c(-c2csc(C)n2)c1C | inconclusive: 96%
CN1CCS/C1=C/C=C1/SC(=S)N(Cc2ccccc2)C1=O | inactive: 97%
COc1ccc(NC(=O)c2cccnc2SC)cc1S(=O)(=O)N1CCCCC1 | inactive: 100%
COC(=O)CSc1ccc(C#N)c(SCC(=O)OC)c1 | inconclusive: 104%
COc1cccc(OCc2nnc(SCC(=O)NCc3ccco3)n2C)c1 | inconclusive: 118%
CN(C)c1nc(=S)nc(NCc2ccccc2)[nH]1 | inconclusive: 111%
